Where “and” joins values, the source holds several entries; their conditions need not be identical. Identical values can stand only once. Out of some 420,000 compounds screened, about 50,000 (12%) were called active. Inconclusive results, whose numbers are uncertain, are shown with a selection of clear calls. Calls follow the shape of the dose curve; as a rule, active = well fitted inhibition curve with a large enough effect; inconclusive = small, poorly fitted or top-dose-only effect; inactive = flat fitted curve, though single readings scatter. Where the call is inconclusive, the potency comes from a doubtful curve fit.
Experiment: qHTS for Inhibitors of human tyrosyl-DNA phosphodiesterase 1 (TDP1): qHTS in cells in presence of CPT; also: nearly all actives have a fitted effect of over 55% in size
Settings: chicken DT40 Tdp1-/-;hTDP1 cells + 20 nM CPT, ATP luminescence, 48 h; activity change, negative = growth inhibition: at 46.2 µM (top of the series)
In short: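 Cell growth measured by CellTiter-Glo luminescence after a minimum 48 h, 37 C compound exposure with 20 nM CPT in Tdp1-knockout DT40 cells stably expressing hTDP1, seeded 400/well; qHTS titration format.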
% is scaled to controls: 0 for no effect and ±100 for the full control effect; potency is read from the fitted curve at half-maximal effect; tags tell the direction and shape of the fitted curve.

SMILES | Potency | activity change, negative = growth inhibition
O=c1c2sc3ccccc3c2n(Cc2cccc(F)c2)c(=O)n1Cc1ccccc1 | inconclusive: 20.6 µM [inhibitor, partial curve] | –
COc1ccc(-c2nc3ccc(C)cn3c2Cc2ccc(C)cc2)cc1OC | active: 23.1 µM | –
COc1ccc(NS(=O)(=O)c2cccc(C(=O)NCC(c3ccco3)N3CCCCC3)c2)cc1 (stereo not given) | inconclusive: 25.9 µM [inhibitor, single point] | –
Cc1cccc2c3nc4ccccc4nc3n(C)c12 | inconclusive: 32.6 µM [inhibitor, single point] | –
CCN(c1cccc(C)c1)S(=O)(=O)c1cc2c3c(c1)CCN3C(=O)CC2 | active: 29.1 µM | –
Cc1ccc2c(c1Br)C(O)(CC(=O)c1ccc(F)cc1)C(=O)N2 (stereo not given) | – | inactive: -16%
N#Cc1nc(N2CCCCC2)nc(N2CCCCC2)n1 | inconclusive: 20 µM [inhibitor, single point] | –
Cc1c(C(=O)NCc2ccc(Cl)c(Cl)c2)sc(=O)n1Cc1ccc(C(=O)N(C)C)cc1 | active: 14.6 µM | –
COc1ccc(N2CCN(CCNC(=O)Nc3cc(Cl)ccc3Cl)CC2)cc1 | – | inactive: -7.44%
CC(=O)Oc1cc(OC(C)=O)c2c(c1)OC(c1ccc(OC(C)=O)c(OC(C)=O)c1)C(OC(C)=O)C2 (stereo not given) | inconclusive: 23.1 µM [inhibitor, single point] and inconclusive: 29.1 µM [inhibitor, single point] | –
O=[N+]([O-])c1ccccc1NCCNc1ncc(C(F)(F)F)cc1Cl | inconclusive: 29.1 µM [inhibitor, single point] | –
CSc1ccc(C(=O)C2CCCN(C(=O)c3cc4cc(F)ccc4[nH]3)C2)cc1 (stereo not given) | active: 18.4 µM | –
Cc1c(NC(=O)/C(C#N)=C/c2ccc(-c3ccc(Cl)c(Cl)c3)o2)c(=O)n(-c2ccccc2)n1C | active: 18.4 µM | –
Cc1ccc(-n2nnnc2SCC(=O)NC2CCS(=O)(=O)C2)c(C)c1 (stereo not given) | – | inactive: -13.4%
C=CC[C@@H]1/C=C(\C)C[C@H](C)C[C@H](OC)[C@H]2O[C@@](O)(C(=O)C(=O)N3CCCC[C@H]3C(=O)O[C@H](/C(C)=C/[C@@H]3CC[C@@H](O)[C@H](OC)C3)[C@H](C)[C@@H](O)CC1=O)[C@H](C)C[C@@H]2OC | active: 3.35 µM | –
Cc1c(C=O)c2ccccc2n1CC(=O)N1CCc2ccccc2C1 | inconclusive: 18.4 µM [inhibitor, single point] | –
CCOC(=O)c1ccc(N2C(=O)c3[nH]nc(-c4ccccc4)c3C2c2ccc(CC)cc2)cc1 (stereo not given) | active: 20.6 µM | –
CC(C)(C)C1CCC(=O)N(CCSc2ccccc2)CC1 (stereo not given) | inconclusive: 35.5 µM [inhibitor, single point] and inconclusive: 18.4 µM [inhibitor, partial curve, poor fit] | –
Cc1ccccc1NC(=O)C(C#N)Cc1cccnc1 (stereo not given) | – | inactive: -3.16%
COc1cc(CO)c(OC)c([N+](=O)[O-])c1 | – | inactive: 8.45%
CC1CC(C)CN(C(=O)c2ccc(C(=O)c3ccccc3)cc2)C1 (stereo not given) | inconclusive: 29.1 µM [inhibitor, single point] | –
COc1ccc(C(=O)N2N=C3CC(C)(C)OCC3C2c2ccccc2)cc1 (stereo not given) | – | inactive: -3.45%
O=C(c1ccc2c(c1)N(Cc1ccccc1F)C(=O)c1ccccc1S2(=O)=O)N1CCC(Cc2ccccc2)CC1 | active: 16.4 µM | –
O=C(Cn1c(=O)n(Cc2nc(-c3ccccc3)no2)c(=O)c2ccccc21)Nc1cccc(C(F)(F)F)c1 | inconclusive: 25.9 µM [inhibitor, single point] | –

SMILES | Potency | activity change, negative = growth inhibition
O=S(=O)(Nc1ccc2c3c(cccc13)CC2)c1ccc(F)cc1 | inconclusive: 23.1 µM [inhibitor, single point] | –
COc1ccc(NC(=O)CSc2nc3ccccc3c(=O)n2CCC(=O)N2CCCCC2)cc1 | inconclusive: 29.1 µM [inhibitor, single point] | –
Cc1ccc2oc(C(=O)NCCCN3CCOCC3)c(C)c2c1 | inconclusive: 29.1 µM [inhibitor, partial curve, poor fit] | –
Cc1c(Cl)cccc1NC(=O)CC1Oc2ccccc2NC1=O (stereo not given) | inactive | –
CCN(CC)c1ccc(NS(=O)(=O)c2ccc3c(c2)oc(=O)n3C)c(C)c1 | active: 25.9 µM | –
O=C(NCC1(N2CCOCC2)CCCCC1)c1cnn(-c2nccc(-c3ccco3)n2)c1C1CC1 | inconclusive: 29.1 µM [inhibitor, single point] | –
O=C(CN(Cc1ccco1)C(=O)c1ccc(Cl)cc1)Nc1ccc(Cl)c(Cl)c1 | – | inactive: -6.56%
CC1CCCCC1N=CC1=C(O)CC(C)(C)CC1=O (stereo not given) | – | inactive: -29.3%
CCNC(=O)NC(=O)CSc1nnc(-c2c[nH]c3ccccc23)o1 | inconclusive: 18.4 µM [inhibitor, partial curve, poor fit] | –
COCCN(C(=O)CCCc1nc2ccccc2s1)c1c(N)n(CC(C)C)c(=O)[nH]c1=O | – | inactive: -2.67%
O=C(COC(=O)Cn1cc(C(F)(F)F)ccc1=O)Nc1ccccc1 | – | inactive: -20.2%
Cc1cc(C)cc(NC(=O)C(Sc2ncnc3ccccc23)c2ccccc2)c1 (stereo not given) | inconclusive: 25.9 µM [inhibitor, single point] | –
CC1C(=O)Nc2ccc(S(=O)(=O)N3CCCCC3)cc2NC1=O (stereo not given) | – | inactive: -13.3%
COCCCNC(=O)c1cccc2c(-c3ccc(OC)cc3C)coc12 | active: 18.4 µM | –
CCCN(CC(=O)Nc1ccccc1C)C(=O)c1ccc(N2CCCC(C)C2)c([N+](=O)[O-])c1 (stereo not given) | inconclusive: 29.1 µM [inhibitor, single point] | –
CCN(C(=O)c1cc2c(=O)n3ccccc3nc2n1C)C1CCCCC1 | inconclusive: 20.6 µM [inhibitor, partial curve] | –
COc1cc(OC)c(-c2nc(-c3ccncc3)no2)cc1OC | inconclusive: 29.1 µM [inhibitor, single point] | –
Cn1cc(-c2cc3n(n2)CCC(=O)N3CCCC(=O)NCc2ccc(Cl)cc2)c2ccccc21 | inconclusive: 23.1 µM [inhibitor, single point] | –
O=C(CCCn1c(=O)c2cccn2c2ccccc21)Nc1cc(C(F)(F)F)ccc1Cl | inconclusive: 23.1 µM [inhibitor, single point] | –
CCN(Cc1nc2ccccc2c(=O)[nH]1)C(=O)c1cccc(OCc2c(C)noc2C)c1 | inconclusive: 29.1 µM [inhibitor, single point] | –
CCC(C(=O)NC1CCCCCC1)c1ccccc1 (stereo not given) | – | inactive: -5.62%
O=C(O)CCCC(=O)NCCCCc1ccccc1 | – | inactive: -6.52%
CC1=C(c2ccc(Cl)cc2)S(=O)(=O)NC1=NCCCN1CCN(c2cc(C)ccc2C)CC1 | active: 2.59 µM | –
COc1ccc(OC)c2c(C)ccnc12 | inconclusive: 35.5 µM [inhibitor, single point] | –

SMILES | Potency | activity change, negative = growth inhibition
CCOc1ccc(CC(=O)NCCS(=O)(=O)N2CCN(c3ccccc3)CC2)cc1 | – | inactive: -20.6%
Cn1c(SCC(=O)N2CCOCC2)nc2c(c1=O)SCC2 | – | inactive: -1.56%
COc1cc(/C=N/NC(=O)c2cc(-c3cccc(Br)c3)nc3ccccc23)cc(OC)c1O | active: 20.6 µM | –
CCOc1ccccc1NC(=O)CN1C(=O)COc2ccc(S(=O)(=O)N3CCOCC3)cc21 | inactive and inconclusive: 29.1 µM [inhibitor, single point] | –
N#CCC(=O)N/N=C/c1c2ccccc2cc2ccccc12 | – | inactive: -17.8%
O=C(CSc1nccn1Cc1ccccc1)NCc1ccco1 | – | inactive: -5.65%
Cc1csc(-c2nc3ccccc3n2C(C(=O)Nc2c(C)cccc2C)C2CC2)c1 (stereo not given) | inconclusive: 23.1 µM [inhibitor, single point] | –
CCOC(=O)c1cc(-c2ccc(OC)cc2)n(CCC(=O)Nc2ccccc2OC)c1C | active: 14.6 µM | –
O=C(C[n+]1ccc(-c2cc(C(=O)Nc3cccc(C(F)(F)F)c3)c3ccccc3n2)cc1)c1cccc([N+](=O)[O-])c1 | inconclusive: 29.1 µM [inhibitor, single point] | –
COc1ccc(Cn2c(CCC(=O)Nc3cc(OC)c(OC)c(OC)c3)nc3cccnc32)cc1 | active: 16.4 µM | –
CC(C)COC(=O)N1CCCCC1c1cc(C(=O)NC(C)C)no1 (stereo not given) | inconclusive: 25.9 µM [inhibitor, single point] | –
COc1ccc(C2c3c(-c4ccccc4O)n[nH]c3C(=O)N2CCc2ccc(OC)c(OC)c2)cc1 (stereo not given) | active: 20.6 µM | –
COc1cc(C)ccc1OC(C)C(=O)Nc1ccc(N2CCCCC2)cc1 (stereo not given) | inconclusive: 16.4 µM [inhibitor, single point] | –
COC(=O)[C@]1(C)N[C@H](CN(C)C(=O)c2ccccc2)[C@@H]2C(=O)N(Cc3ccccc3)C(=O)[C@@H]21 | – | inactive: 3.78%
COc1c(C)cc(C(O)c2ncc(-c3ccc(C(F)(F)F)cc3)[nH]2)cc1C (stereo not given) | inconclusive: 29.1 µM [inhibitor, single point] | –
O=C(Nc1nnc(C2CC2)o1)c1ccc(S(=O)(=O)N2CCCc3ccccc32)cc1 | active: 4.61 µM | –
COC(=O)c1ccc(N2CCCCC2)c(NS(=O)(=O)c2ccc(C)cc2)c1 | active: 16.4 µM | –
COc1nc(C#N)nc(N(C)C)n1 | inconclusive: 25.1 µM [inhibitor, single point] | –
COc1ccc(-c2ccc(CCC(=O)O)n2CC(C)C)cc1 | inconclusive: 29.1 µM [inhibitor, single point] | –
Cc1cccc(-n2c(SCC(=O)Nc3ncc(Cl)cc3Cl)nc3ccccc32)c1 | inconclusive: 16.4 µM [inhibitor, single point] | –
CCCCCOc1ccc(Br)cc1/C(C)=N/NC1=NCCN1 | active: 5.8 µM | –
O=C(c1cccc(NC2=NC3CS(=O)(=O)CC3S2)c1)N1CCN(c2cccc(Cl)c2)CC1 (stereo not given) | inconclusive: 29.1 µM [inhibitor, single point] | –

Source: PubChem BioAssay AID686979 (National Center for Advancing Translational Sciences (NCATS), 2013)
